PubChem BioAssay AID504333 (National Center for Advancing Translational Sciences (NCATS), 2011)
The whole screen tested about 360,000 compounds, of which about 16,000 (4.4%) were called active. The inconclusive results got no clear call from the source; some entries with a clear call stand among them for comparison. Calls come from the whole dose curve; as a rule, active = well fitted inhibition curve with a large enough effect; inconclusive = small, poorly fitted or top-dose-only effect; inactive = no such curve, though single readings can be large or run the other way. Potencies of inconclusive entries are doubtful fits and often do not repeat.

target: Bromodomain adjacent to zinc finger domain protein 2B (Homo sapiens) (UniProt Q9UIF8); assay: qHTS Assay for Inhibitors of BAZ2B; conditions: AlphaScreen BAZ2B-H3K14Ac peptide displacement; series mostly up to 114 µM; note: nearly all actives have a fitted effect of over 60% in size
Method in brief: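 BAZ2B 50 nM plus b-H3(5-23)K14Ac 50 nM, PBS pH 7.4/0.01% Tween-20, 30 min RT; compound added (max 110 uM), 30 min RT; streptavidin donor/Ni-chelate acceptor beads 10 ug/mL final, 20 min dark; AlphaScreen read.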
Potency is the fitted concentration of half-maximal effect; tags give direction and shape of the fitted curve.

Chain of UniProt Q9UIF8 (Q9UIF8 whole entry, looked up, the tested form may be a part): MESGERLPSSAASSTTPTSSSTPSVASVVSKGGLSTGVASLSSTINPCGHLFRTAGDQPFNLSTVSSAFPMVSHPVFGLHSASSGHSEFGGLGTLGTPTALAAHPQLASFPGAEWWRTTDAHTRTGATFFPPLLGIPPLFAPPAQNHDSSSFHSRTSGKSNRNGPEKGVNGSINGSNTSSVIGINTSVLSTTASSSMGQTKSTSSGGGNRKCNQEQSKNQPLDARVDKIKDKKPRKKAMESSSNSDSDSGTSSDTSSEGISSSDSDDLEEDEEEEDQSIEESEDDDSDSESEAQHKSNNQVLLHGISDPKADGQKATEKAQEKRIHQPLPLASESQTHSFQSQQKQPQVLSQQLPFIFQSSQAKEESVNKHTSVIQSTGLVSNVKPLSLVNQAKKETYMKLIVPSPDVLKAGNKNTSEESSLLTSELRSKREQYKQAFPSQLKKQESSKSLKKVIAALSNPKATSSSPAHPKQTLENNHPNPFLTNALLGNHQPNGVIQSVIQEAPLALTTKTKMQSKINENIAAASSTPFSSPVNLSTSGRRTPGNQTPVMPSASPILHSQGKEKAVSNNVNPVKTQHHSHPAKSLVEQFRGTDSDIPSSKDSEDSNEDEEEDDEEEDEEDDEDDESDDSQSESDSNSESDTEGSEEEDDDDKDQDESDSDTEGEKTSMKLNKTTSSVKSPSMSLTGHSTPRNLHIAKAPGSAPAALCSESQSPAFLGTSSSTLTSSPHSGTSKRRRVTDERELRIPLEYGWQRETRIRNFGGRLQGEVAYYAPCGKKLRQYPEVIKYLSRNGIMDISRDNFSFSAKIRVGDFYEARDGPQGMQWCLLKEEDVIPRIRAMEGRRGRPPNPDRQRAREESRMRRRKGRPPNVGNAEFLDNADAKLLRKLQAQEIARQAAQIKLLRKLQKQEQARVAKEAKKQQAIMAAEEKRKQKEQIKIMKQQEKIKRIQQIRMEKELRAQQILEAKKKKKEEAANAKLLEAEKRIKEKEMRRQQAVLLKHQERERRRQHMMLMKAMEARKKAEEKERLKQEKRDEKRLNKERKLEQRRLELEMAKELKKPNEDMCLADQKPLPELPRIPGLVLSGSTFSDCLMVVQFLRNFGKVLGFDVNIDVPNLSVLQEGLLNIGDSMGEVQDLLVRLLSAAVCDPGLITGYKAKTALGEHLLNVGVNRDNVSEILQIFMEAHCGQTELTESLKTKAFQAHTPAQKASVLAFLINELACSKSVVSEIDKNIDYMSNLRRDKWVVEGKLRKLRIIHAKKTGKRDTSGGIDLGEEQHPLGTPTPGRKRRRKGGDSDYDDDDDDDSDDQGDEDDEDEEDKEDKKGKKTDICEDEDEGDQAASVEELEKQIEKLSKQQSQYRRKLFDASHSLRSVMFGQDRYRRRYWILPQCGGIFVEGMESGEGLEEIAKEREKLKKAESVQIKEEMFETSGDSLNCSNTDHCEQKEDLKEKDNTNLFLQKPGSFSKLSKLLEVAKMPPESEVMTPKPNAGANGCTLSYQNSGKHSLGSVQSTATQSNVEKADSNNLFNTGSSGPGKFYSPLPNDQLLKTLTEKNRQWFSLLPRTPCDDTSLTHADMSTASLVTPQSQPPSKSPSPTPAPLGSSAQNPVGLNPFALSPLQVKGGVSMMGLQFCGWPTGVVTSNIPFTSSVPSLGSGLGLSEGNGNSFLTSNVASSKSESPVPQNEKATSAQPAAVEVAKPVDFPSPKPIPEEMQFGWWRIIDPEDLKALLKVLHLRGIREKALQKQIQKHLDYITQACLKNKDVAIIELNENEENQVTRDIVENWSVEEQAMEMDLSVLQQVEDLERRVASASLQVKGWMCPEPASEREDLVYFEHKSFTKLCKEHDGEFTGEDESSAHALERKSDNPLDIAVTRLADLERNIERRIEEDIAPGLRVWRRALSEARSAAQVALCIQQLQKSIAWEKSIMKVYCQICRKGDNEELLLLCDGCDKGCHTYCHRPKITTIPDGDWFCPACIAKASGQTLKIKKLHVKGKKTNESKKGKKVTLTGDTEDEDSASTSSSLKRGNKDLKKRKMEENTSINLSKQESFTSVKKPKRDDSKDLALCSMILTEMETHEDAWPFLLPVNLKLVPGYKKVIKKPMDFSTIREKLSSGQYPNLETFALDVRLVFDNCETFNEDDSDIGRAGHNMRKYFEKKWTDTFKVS

Compound	Potency
Fc1ccc(NCc2cn3ccccc3n2)cc1	active: 50.1 µM
O=C(O)c1cc2cccc(S(=O)(=O)N3CCCCC3)c2cc1O	inactive
CCN1CCN(C(=O)CCc2nnc(CCc3ccc(OC)cc3)o2)[C@@H](C)C1=O	inactive
O=C(Nc1cc(C(F)(F)F)ccc1Cl)c1cc(S(=O)(=O)NCc2ccccc2)ccc1F	inactive
CCc1cc2c(cc3c(=O)n(CCCC(=O)NCc4ccccc4Cl)nc(CC)n32)s1	inactive
CCOC(=O)c1c(C)oc2ccc(NS(=O)(=O)c3ccc(C(=O)O)cc3)cc12	inconclusive: 79.4 µM [inhibitor, single point]
Cc1ccc([N+](=O)[O-])cc1N/C=C1\CCCCC1=O	inconclusive: 89.1 µM [inhibitor, single point]
O=[N+]([O-])c1ccccc1S(=O)(=O)N1CCCC(C(F)(F)F)C1 (stereo not given)	inactive
Cc1ccc(C(=O)N/C(=C\c2cccs2)C(=O)NCCc2c[nH]c3ccccc23)cc1C	inconclusive: 39.8 µM [inhibitor, partial curve]
O=c1[nH]c(NNC(=S)NCc2ccccc2)nc2c1C1(CCCCC1)Cc1ccccc1-2	inconclusive: 39.8 µM [inhibitor, full curve]
CCOC(=O)c1sc2cc([N+](=O)[O-])cc(SCC(=O)OC)c2c1N	active: 39.8 µM
CN(CCc1ccccn1)Cc1ccc(Cl)cc1Cl	active: 50.1 µM
O=S(=O)(Nc1cccc2ncccc12)c1cccs1	active: 56.2 µM
C=CCN1CCN(C(=O)CSc2ccccc2)CC1	inactive
CCCOc1cccc(C(=O)NC(=S)Nc2ccc(N3CCN(C)CC3)cc2)c1	inactive
COc1ccc(CCNC(=O)CCc2c(C)nc3cc(-c4ccccc4)nn3c2C)cc1OC	inconclusive: 35.5 µM [inhibitor, full curve]
C/C(=N\NC(=O)c1ccco1)c1cc2ccccc2o1	inactive
CN(C)S(=O)(=O)c1ccc2c(c1)c(=O)c(C(=O)NCCCN1CCCCCC1)cn2C	inactive
O=C1/C(=C\c2cc([N+](=O)[O-])ccc2O)SC(=S)N1Cc1ccc(Cl)cc1	active: 25.1 µM
COc1ccc(C)cc1NS(=O)(=O)c1ccc2c(c1)[C@H]1C=CC[C@H]1[C@@H](c1cccc(Cl)c1)N2	inconclusive: 35.5 µM [inhibitor, partial curve]
COc1cc(C(=S)N2CCOCC2)ccc1OC(=O)Cc1ccc(F)cc1	inactive
Cc1ccc(C)c(N2CCN(C(=O)CCS(=O)(=O)c3cccc4nonc34)CC2)c1	inconclusive: 35.5 µM [inhibitor, full curve, poor fit]
COc1cccc(NC(=O)/C=C/c2ccc([N+](=O)[O-])cc2)c1	inconclusive: 39.8 µM [inhibitor, partial curve]
CC(C)CN(C(=O)CN1C(=O)NC(c2ccccc2)(c2ccccc2)C1=O)C1CCS(=O)(=O)C1 (stereo not given)	inactive
Cc1ccc(C(=O)NC(=S)Nc2ccccc2N2CCOCC2)cc1C	inconclusive: 12.6 µM [inhibitor, full curve]

Compound	Potency
CN(C)c1ccc(-c2noc(C3CCN(S(=O)(=O)c4cccc(Cl)c4)CC3)n2)cc1	inconclusive: 10 µM [inhibitor, full curve, poor fit]
CN1CCN(CCC(=O)N/N=C/c2cc([N+](=O)[O-])ccc2O)CC1	inactive
O=c1[nH]cc(N=Cc2cc([N+](=O)[O-])ccc2O)c(=O)[nH]1	inactive
CC(=O)N[C@@H](Cc1c[nH]c2ccccc12)C(=O)NC1CCCc2ccccc21 (stereo not given in full)	inactive
O=c1c2oc3ccccc3c2n(Cc2ccccc2Cl)c(=O)n1Cc1ccc2c(c1)OCO2	inconclusive: 79.4 µM [inhibitor, single point]
COc1ccc(Cn2nnnc2C(c2cc(OC)ccc2OC)N2CCC(C(N)=O)CC2)cc1 (stereo not given)	inactive
COc1ccc(-c2nn(C)c3sc(C(=O)NCc4ccco4)cc23)cc1OC	inactive
CC(C)(C)c1ccc(C(=O)Nc2cccc(-n3cnnn3)c2)cc1	inactive
CC1CCN(C(c2ccc(N(C)C)cc2)c2nnnn2Cc2ccc(F)cc2)CC1 (stereo not given)	active: 12.6 µM
O=C(COc1ccccc1)Nc1cccc(-c2nc3cc4ccccc4cc3[nH]2)c1	inactive
O=C1CN(C(=O)c2ccc(S(=O)(=O)N3CCCC3)cc2)C(c2ccc(F)cc2)c2cc(Br)ccc2N1 (stereo not given)	inactive
C/C(=C\C(=O)N1CCc2ccccc21)C(=O)O	inconclusive: 70.8 µM [inhibitor, single point]
Cc1ccc(-c2c(C(=O)N/N=C/C3CC=CCC3)nnn2-c2nonc2N)cc1 (stereo not given)	inconclusive: 56.2 µM [inhibitor, partial curve, poor fit]
Cc1ccc(N(CC(=O)NC(C)C)C(=O)CCC(=O)Nc2ccccn2)cc1	inconclusive: 89.1 µM [inhibitor, single point]
CCC(C)NC(=O)/C(=C/c1ccco1)c1ccccc1 (stereo not given)	inactive
CCOC(=O)CSc1ccc(S(=O)(=O)N2CCCCC2)cc1[N+](=O)[O-]	inconclusive: 89.1 µM [inhibitor, single point]
CCCc1cc(C(=O)Nc2ccc(C(=O)c3ccc(C)cc3)cc2)n(C)n1	inactive
O=C(c1ccco1)N1CCN(C(c2ccc(F)cc2)c2nnnn2CC2CCCO2)CC1 (stereo not given)	inconclusive: 89.1 µM [inhibitor, single point]
COc1ccc(C(=O)Nc2ccc(-c3nnn(CC(=O)N4CCN(C(=O)c5ccco5)CC4)n3)cc2)cc1	active: 79.4 µM
COc1ccc(C(=O)NCc2cn3ccc(C)cc3n2)cc1	inactive
O=C(NCCN1CCc2ccccc2C1)C1CCN(S(=O)(=O)N2CCC3(CC2)OCCO3)CC1	inconclusive: 89.1 µM [inhibitor, single point]
CC1Nc2ncnc(N3CCN(c4ccccc4)CC3)c2N(Cc2ccc(Br)cc2)C1=O (stereo not given)	inconclusive: 44.7 µM [inhibitor, partial curve]
Cc1cc(C(=O)N/N=C/c2cccc3ccccc23)c(C)o1	inactive
CC1Cc2cc(/C(O)=C3/C(=O)C(=O)N(CCCn4ccnc4)C3c3cccc([N+](=O)[O-])c3)ccc2O1 (stereo not given)	inconclusive: 63.1 µM [inhibitor, single point]
CC(=O)/C(=C/c1ccc(N(C)C)cc1)C(=O)c1ccccc1	inconclusive: 50.1 µM [inhibitor, partial curve]

Compound	Potency
COCCNCC(=O)N1CCCCCC1	active: 50.1 µM
COC(=O)c1[nH]c2cc(OC)ccc2c1NC(=O)CCN1CCCCC1	inactive
O=C(Nc1nnc(SCCC2OCCO2)s1)C1CC(=O)N(c2ccc(F)cc2)C1 (stereo not given)	inconclusive: 35.5 µM [inhibitor, full curve, poor fit]
Cc1ccc(S(=O)(=O)c2nc(-c3cccs3)oc2N2CCC(C)CC2)cc1	inconclusive: 14.1 µM [inhibitor, full curve]
Cc1ccc(N(Cc2cc3ccc(C)cc3[nH]c2=O)C(=O)c2ccco2)c(C)c1	inactive
CC1CCCC(NC(=O)CCNC(=O)c2ccccc2Cl)C1C (stereo not given)	inactive
C=CCn1c(CNC(=O)c2ccco2)nnc1SCC(=O)N1c2ccccc2Sc2ccccc21	active: 79.4 µM
O=C(Nc1ccc2oc(-c3ccccc3Cl)nc2c1)c1ncn[nH]1	active: 50.1 µM
CCCCn1c(N)c(N(CCOC)C(=O)c2cc(-c3ccco3)nc3ccccc23)c(=O)[nH]c1=O	active: 50.1 µM
CCOc1c(Br)cc(CNc2ccc(N3CCOCC3)cc2)cc1OC	active: 25.1 µM
CCS(=O)(=O)Nc1cc(OC)c(OC)cc1Cc1nccc2cc(OC)c(OC)cc12	inconclusive: 79.4 µM [inhibitor, single point]
COc1cccc(C2c3[nH]c4ccccc4c3C[C@H]3C(=O)N(CCCCCO)CC(=O)N23)c1 (stereo not given in full)	inconclusive: 79.4 µM [inhibitor, single point]
COc1ccc(N/N=C(/N=Nc2nc(C)cc(=O)[nH]2)c2ccccc2)cc1	active: 7.08 µM
COC(=O)c1cc(-c2ccccc2)sc1N	inconclusive: 50.1 µM [inhibitor, partial curve]
O=C(NCCCn1ccnc1)c1cc2c(s1)CCCC2	active: 56.2 µM
O=C(CSc1nc(N2CCCCC2)nc(N2CCCCC2)n1)N1CCN(c2ccccc2)CC1	inactive
Cc1ccc(C2CC(=O)Nc3c2c(C)nn3-c2nc(C)cc(C)n2)c(C)c1 (stereo not given)	inactive
O=S(=O)(Cc1cc(NCc2ccccc2)nc(-c2ccccn2)n1)c1ccccc1	inconclusive: 89.1 µM [inhibitor, single point]
Cc1cccc(N2CCn3c2nc2c3c(=O)n(CCCc3ccccc3)c(=O)n2C)c1	inconclusive: 79.4 µM [inhibitor, single point]
C/C(O)=C(/C#N)c1nc2ccccc2[nH]1	inconclusive: 79.4 µM [inhibitor, single point]
Cc1ccc(NC(=O)c2cccs2)cc1NC(=O)c1cccc(F)c1	inconclusive: 89.1 µM [inhibitor, single point]
Cc1onc(-c2c(Cl)cccc2Cl)c1C(=O)n1nnc2ccccc21	inconclusive: 3.55 µM [inhibitor, full curve, poor fit]
Cc1ccc(C(c2sc3nc(-c4ccco4)nn3c2O)N2CCN(c3ccc(F)cc3)CC2)cc1 (stereo not given)	inactive
COc1ccc(/C(C)=N/NC(=O)c2ccccc2N)cc1	inconclusive: 89.1 µM [inhibitor, single point]
CC(C)(C)OC(=O)N1CCC(Cc2cc(-c3ccc(Cl)cc3)no2)(C(=O)O)CC1	inconclusive: 100 µM [inhibitor, single point]
